Reference: PubChem BioAssay AID488969 (Vanderbilt High Throughput Screening Facility, 2010)
The full ranking holds about 110,000 compounds; the median of “z-score” is about -0.1, and the highest 2% start at about 2. This is one part of the list. Activity calls are given as the source filed them.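 How the source made its calls: active means z-score in the third read window above 3 or below -3; inactive means the rest.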

What follows are compounds tested against Metabotropic glutamate receptor 8 (Rattus norvegicus) (UniProt P70579) (assay: mGluR8 Gi/Go-coupled signaling modulation – cell-based, rat, thallium flux, HTS, primary screen (AID 488969)). Details: HEK293 rat mGluR8, GIRK (G protein-gated inwardly rectifying potassium channel) thallium flux, FluoZin2; at 10 µM; stronger effect = higher value; submaximal glutamate (EC20) added with thallium.
Sequence of UniProt P70579 (P70579 whole entry, looked up): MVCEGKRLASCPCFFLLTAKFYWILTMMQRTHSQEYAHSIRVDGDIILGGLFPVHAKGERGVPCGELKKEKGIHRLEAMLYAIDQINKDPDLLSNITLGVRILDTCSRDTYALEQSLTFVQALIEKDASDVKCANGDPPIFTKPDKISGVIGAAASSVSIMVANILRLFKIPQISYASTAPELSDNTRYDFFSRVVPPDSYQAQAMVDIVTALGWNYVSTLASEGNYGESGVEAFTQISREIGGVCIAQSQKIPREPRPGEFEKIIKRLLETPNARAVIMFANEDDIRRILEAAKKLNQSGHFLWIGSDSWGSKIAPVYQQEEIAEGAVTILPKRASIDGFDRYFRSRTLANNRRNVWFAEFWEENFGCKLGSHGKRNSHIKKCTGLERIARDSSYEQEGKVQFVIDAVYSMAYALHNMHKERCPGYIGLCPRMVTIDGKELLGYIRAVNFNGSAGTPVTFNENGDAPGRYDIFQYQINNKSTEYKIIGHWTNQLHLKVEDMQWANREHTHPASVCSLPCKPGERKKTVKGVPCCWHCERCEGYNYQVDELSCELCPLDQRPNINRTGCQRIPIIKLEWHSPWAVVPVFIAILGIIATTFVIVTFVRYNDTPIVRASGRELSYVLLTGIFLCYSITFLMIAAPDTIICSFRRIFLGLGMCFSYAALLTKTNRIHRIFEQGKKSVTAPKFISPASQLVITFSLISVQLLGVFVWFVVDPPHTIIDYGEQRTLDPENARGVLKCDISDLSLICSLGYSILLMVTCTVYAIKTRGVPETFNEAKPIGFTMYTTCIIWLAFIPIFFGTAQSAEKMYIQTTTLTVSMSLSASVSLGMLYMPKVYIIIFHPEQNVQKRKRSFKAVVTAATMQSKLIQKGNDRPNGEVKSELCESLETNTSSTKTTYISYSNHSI

In order of falling z-score:
1. Cc1noc(/C=C/N(C)C)c1S(=O)(=O)N(C)CC(=O)NC1CCCCC1  2.18
2. Cc1cnc(NC(=O)CSc2nc3ccccc3c(=O)[nH]2)s1  2.14
3. CC(C)n1c(CCC(=O)O)ccc1-c1ccccc1  2.11
4. CC1CCN(C(=O)C2CCN(S(=O)(=O)c3cccnc3)CC2)CC1  2.03
5. O=C1CN=C(Nc2ccccc2Cl)N1c1ccccc1  1.48
6. C=CCn1c(NC(=O)c2ccc(Br)o2)c(C(=O)OCC)sc1=S  1.27
7. CC(=O)c1ccc(NC(=O)CSc2nc3nc(C)cc(C)n3n2)cc1  0.986
8. O=S(=O)(NCC(c1cccnc1)N1CCN(c2ccc(F)cc2)CC1)c1ccc(F)cc1 (configuration not stated)  0.938
9. COc1cc(NC(=O)CSc2nnc(C)s2)cc(OC)c1OC  0.932
10. CCOC(=O)c1nn(-c2cc(C(=O)OC)cc(C(=O)OC)c2)cc1O  0.745
11. CC(=C/c1ccccc1)/C=N/NC(=O)c1cc(C)oc1C  0.673
12. CCn1c(O)c(C=NCCN2CCOCC2)sc1=S  0.651
13. COc1ccc(OC)c(/C(O)=C/C(=O)C(=O)Nc2cc(C)cc(C)c2)c1  0.571
14. CN(C(=O)COc1ccccc1)c1nnc(-c2cccnc2)s1  0.536
15. CC(C)Cc1ccc(C(C)C(=O)N2CCOCC2)cc1 (configuration not stated)  0.407
16. Cc1cc2nnc(SCC(=O)Nc3cccc(S(=O)(=O)N4CCOCC4)c3)n2c2ccccc12  0.339
17. CCN(CC)CC(=O)c1ccc(-c2ccccc2)cc1  0.293
18. C=CCn1c(SCC2=C(C(=O)OCC)C(C)NC(=O)N2)nnc1C1CCCCC1 (configuration not stated)  0.263
19. COC(=O)N/N=C/c1ccc(-c2ccc(C)c(Cl)c2)o1  0.262
20. Cn1cc(C(=O)N/N=C/C(Br)=C/c2ccccc2)ccc1=O  0.256
21. CC(Oc1ccc(Cl)cc1)C(=O)NCCCn1ccnc1 (configuration not stated)  0.246
22. CN1CCN(c2ccc(NC(=O)c3ccccc3Br)cc2)CC1  0.227
23. COc1ccccc1C1CC(=O)NC(SCC(=O)Nc2ccccc2)=C1C#N (configuration not stated)  0.225
24. Cc1ccc(/C=C2\SC(=S)N(CC(=O)Nc3ncc(Cc4ccccc4Cl)s3)C2=O)cc1  0.225
25. COC(=O)c1cccc(S(=O)(=O)N2CCN(c3nc4ccccc4s3)CC2)c1  0.221
26. Cc1oc2ccc(NS(=O)(=O)c3ccc(C(C)(C)C)cc3)cc2c1C(=O)Nc1ccccc1  0.22
27. Cc1nc(CN2CCOCC2)cc(=O)[nH]1  0.197
28. Cc1ccc(CN(c2ccc(C(=O)NCc3ccc4c(c3)OCO4)cc2)S(C)(=O)=O)cc1  0.187
29. CSc1nncc(/C(C)=N\Nc2cccc(C)c2)n1  0.113
30. CCCNC(=O)Cn1c(=O)cnc2ccccc21  0.08
31. COc1ccc(Cn2c(C)c(C)c(C#N)c2NC(=O)Nc2ccccc2)cc1  0.0736
32. O=C(NN1C(=O)C2C(c3ccccc3)C=CC(c3ccccc3)C2C1=O)c1cccc(Br)c1 (configuration not stated)  0.0662
33. CCOC(=O)C1CCN(C(=O)CSc2cc(=O)n(C)c3ccccc23)CC1  0.053
34. Cc1cc(C(=O)c2ccc(Cl)cc2)c(NC(=O)CCl)s1  0.0429
35. COCCn1c(C(C)C)nc2sc3ccccc3c(=O)c2c1=O  0.0364
36. O=[N+]([O-])c1ccc(Sc2nccn2Cc2ccccc2)c([N+](=O)[O-])c1  0.0289
37. O=C(Nc1ccc(O)c(-c2nc3ccccc3s2)c1)c1cccs1  0.00864
38. CCOC(=O)CSc1nnc(-c2ccncc2)o1  0.0058
39. O=C(NCC(c1cccs1)N1CCOCC1)c1ccccc1NS(=O)(=O)c1cc([N+](=O)[O-])ccc1Cl (configuration not stated)  -0.0115
40. C=CCN1C(=O)C2C(C(=O)NC3CCCCC3)C3C=CC2(O3)C1C(=O)NC1CCCC1 (configuration not stated)  -0.014
41. Cc1cc2nsnc2c(S(=O)(=O)NCC(=O)O)c1C  -0.0223
42. Cn1cnnc1SCC(=O)c1ccco1  -0.0234
43. O=C(Oc1ccc(N2C(=O)CCC2=O)cc1)c1ccccc1  -0.0302
44. O=S(=O)(c1cnccc1N1CCN(/N=C/c2ccccc2)CC1)N1CCCCC1  -0.047
45. CCOC(=O)N1CCN(C(=O)c2ccc(NC(C)=O)cc2)CC1  -0.0525
46. Cc1ccc(-c2cc3nc(-c4ccccc4)cc(N4CCOCC4)n3n2)cc1  -0.0584
47. O=C(NCCc1ccccc1)C1CCN(C(=O)NCc2ccccc2)CC1  -0.0603
48. COc1ccc(C2N(C(=O)CN3CCOCC3)CCN2S(=O)(=O)c2ccccc2)cc1 (configuration not stated)  -0.0647
49. O=C(Nc1ccc(OC(F)(F)C(F)F)c(NC(=O)c2ccc(F)cc2)c1)c1ccc(F)cc1  -0.0765
50. O=C(c1ccncc1)N(Cc1cc2ccccc2[nH]c1=O)C1CCCCC1  -0.0946
51. O=C1c2ccccc2C(=O)N1CN(C(=O)COc1ccccc1)c1ccc(F)cc1  -0.105
52. O=C(CN1CCN(Cc2ccccc2Cl)C1=O)NC1CCCCCCC1  -0.115
53. Cc1ccc(C)c(NC(=S)NC(NC(=O)Cc2cccc3ccccc23)C(Cl)(Cl)Cl)c1 (configuration not stated)  -0.117
54. CCCCN(C(=O)NC(=O)Nc1nc2ccc(OC)cc2s1)S(C)(=O)=O  -0.125
55. Cn1c(SCC(=O)N/N=C/C=C\c2ccccc2[N+](=O)[O-])nc2ccccc21  -0.125
56. COc1cc(CNCc2ccncc2)cc(Br)c1OCc1ccccc1F  -0.125
57. O=C(NCCCn1ccnc1)c1cc2nc(-c3ccc(Br)cc3)cc(C(F)(F)F)n2n1  -0.126
58. COc1cccc(-c2cc(C(=O)NCCCn3ccnc3)c3ccccc3n2)c1  -0.128
59. Cc1nn(-c2ccccc2)c(C)c1/C=N/N1CCN(c2ccccc2)CC1  -0.131
60. CCc1cc2c(=O)c(-c3cnn(-c4ccccc4)c3)c(C)oc2cc1OCC(=O)Nc1cccc(C)c1  -0.139
61. Cc1cc(C(=O)CSc2ccc3c(c2)OCCO3)c(C)n1C1CC1  -0.14
62. Cc1cccc(C)c1NC(=O)COc1ccccc1C(=O)Nc1ccc(Br)cn1  -0.153
63. O=C(O)CCNc1ccc2c(c1)OCCO2  -0.158
64. NC(=O)Cn1nnc(-c2ccc(C(F)(F)F)cc2)n1  -0.168
65. COc1ccc(N2CCN(C(=O)CCS(=O)(=O)c3cccc4nsnc34)CC2)cc1  -0.17
66. O=C(NC1CCCCC1)C(c1ccc2ncccc2c1)N(Cc1ccccc1)C(=O)c1ccc2c(c1)OCCO2 (configuration not stated)  -0.187
67. Cc1nn(-c2ccccc2)c(N)c1C(c1ccccc1)c1c(C)nn(-c2ccccc2)c1N  -0.199
68. CN(c1ccc(OCC(=O)OCC(=O)Nc2c(F)c(F)c(F)c(F)c2F)cc1)S(=O)(=O)c1ccc(F)cc1  -0.205
69. COc1ccc(-n2c(=O)cc(N3CC(C)OC(C)C3)[nH]c2=O)cc1 (configuration not stated)  -0.209
70. CCOc1ccc(S(=O)(=O)NCCOC)cc1C  -0.211
71. Cc1cccc(NC(=O)CC2SC(=O)N(c3ccccc3)C2=O)c1 (configuration not stated)  -0.223
72. CCOC(=O)c1sc(=S)n(C)c1NC(=O)c1ccccc1Cl  -0.226
73. CC(=O)Nc1cccc(NC(=O)C2CCCN2C(=O)Nc2cccc(F)c2)c1 (configuration not stated)  -0.235
74. Fc1cccc(-c2nn[nH]n2)c1  -0.236
75. Cc1ccccc1NC(=O)CSCC(=O)Nc1ccccc1C  -0.244
76. COc1ccc(NS(=O)(=O)c2ccc(N/N=C(\C)c3ccncc3)c([N+](=O)[O-])c2)cc1  -0.275
77. Cc1c(Cl)cnc(NC(=O)COC(=O)c2nn(C)c(=O)c3ccccc23)c1Cl  -0.317
78. O=C(N/N=C/c1ccc([N+](=O)[O-])s1)C(O)c1ccccc1 (configuration not stated)  -0.341
79. C/C(=N\O)C(=O)NCCCn1ccnc1  -0.342
80. CCOC(=O)c1nn(-c2cccc(C)c2)c2nnc(Cc3ccc(C)cc3)c(=O)n12  -0.383
81. Nc1cc(Cl)ccc1Oc1ccccc1  -0.392
82. COc1ccc(-c2n[nH]c(C)c2-c2cnn(-c3ccccc3)c2)c(O)c1  -0.418
83. COc1ccc(/C=C2\CN(Cc3ccccc3)C/C(=C\c3ccc(OC)cc3)C2=O)cc1  -0.443
84. COCCn1c(C)cc(C(=O)COC(=O)c2ccc(NC(=O)CC#N)cc2)c1C  -0.449
85. C=C(C(=O)c1ccccc1)C(C)C(=C)C(=O)c1ccccc1  -0.457
86. CCOc1ncccc1C(=O)OCc1nnc(-c2ccccc2)o1  -0.473
87. CCN(CC)c1ccc(/C=C2\CCC(/C=N/NC(=O)c3ccc(=O)n(C)c3)=C2N2CCOCC2)cc1  -0.478
88. COc1cc(OC)cc(C(=O)NC2CCN(Cc3nnnn3Cc3cccs3)CC2)c1  -0.489
89. O=C(Nc1ccccc1Oc1ccccc1)c1ccc(Br)o1  -0.497
90. COc1ccc2c(c1)c(C(=O)CNc1nc(C)cs1)c(C)n2C  -0.498
91. CCC(C(=O)OCC(=O)Nc1c(Cl)cc(Cl)cc1Cl)c1ccccc1 (configuration not stated)  -0.499
92. CCC(=O)Nc1nc2nc(-c3ccccc3)cc(-c3ccccc3)n2n1  -0.499
93. O=C(/C=C/c1ccccc1)N/C(=C/c1ccccc1)C(=O)Nc1ccc(C(=O)O)cc1  -0.513
94. Nc1nc(-c2ccco2)cs1  -0.545
95. COc1ccc(NC(=O)C(C)NS(=O)(=O)c2ccccc2)cc1Cl (configuration not stated)  -0.731
96. COc1ccc(/C=N/NC(=O)Cn2nnc3ccccc32)cc1OC  -0.749
97. COc1ccc2cc(C#N)c(N3CCN(Cc4nnnn4CCC(C)C)CC3)nc2c1  -0.783
98. COc1ccc(-c2cc(C(F)(F)F)nc(SCC(=O)Nc3cc(C)on3)n2)cc1OC  -0.812
99. O=C(O)C1CC=CCC1C(=O)Nc1ccc(F)c(F)c1 (configuration not stated)  -0.812
100. Cc1ccc(OCc2nnc(SCc3nc4ccccc4[nH]3)n2Cc2ccco2)cc1  -0.988
101. CC(C)c1cc(Nc2cccc(O)c2)cc(C(C)C)c1O  -1.18
102. CC1Cc2nc(SCC(=O)Nc3ccccc3F)n(C)c(=O)c2S1 (configuration not stated)  -1.41
103. OC1(CN2CCOCC2)C2CN3CCN(C2)CC1(c1ccccc1)C3 (configuration not stated)  -1.52
104. FC(F)Sc1ccc(Nc2ncnc3nc[nH]c23)cc1  -1.83
105. COc1cccc(-n2cnc3scc(-c4cccs4)c3c2=O)c1  -2.15

In the case of `Oc1[nH]c2c(Cl)cc(Cl)cc2c1N=NC(=S)NCC1CCCO1` (configuration not stated), the z-score is reported as active: 7.5.
With `CC(C)CC(NS(=O)(=O)c1ccc2c(c1)oc(=O)n2C)C(=O)NC1CCCc2ccccc21` (configuration not stated) the z-score was active: 5.09.
